# Among all 340,000 compounds or so, about 12,000 (3.5%) were called active. This list was built around the results that the source calls inconclusive (neither active nor inactive); the mix of calls is not that of the screen. The call rests on the fitted dose curve; in most records, active means well fitted inhibition curve with a large enough effect; inconclusive means small, poorly fitted or top-dose-only effect, or another doubt; inactive means no such curve, though single readings can be large or run the other way. Potencies of inconclusive entries are left out as doubtful fits.
# Experiment: qHTS Assay for Inhibitors of Hepatitis C Virus (HCV)
# Details: Huh7.5.1 HCVcc-Cre (HCVcc is cell-culture hepatitis C virus) infection, luciferase reporter, 44 h; series mostly up to 41.8 µM
# Procedure, shortened: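 HCVcc-Cre virus at an moi near 0.5 was added right after compound to cells cultured 4 h from seeding (1,000 cells/well). Luciferase activity was determined 44 h later, 15 min after substrate addition at RT.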
# Potency means the concentration at half of the fitted maximal effect; tags describe the fitted curve by direction and shape.
row,SMILES,Potency
1,Cc1[nH]c2ccccc2c1C=NNC(=O)c1cc(-c2cccnc2)nc2ccccc12,"inconclusive [inhibitor, partial curve]"
2,Nc1cc(=O)nc(SCC(=O)N2CCN(c3ccccc3)CC2)n1-c1ccc(F)cc1,"inconclusive [inhibitor, single point]"
3,CCn1c(NC(=S)Nc2ccccc2)nc2ccccc21,inactive
4,Oc1ccc(/C=N/Nc2ccc(C(F)(F)F)cn2)cc1,"inconclusive [inhibitor, single point]"
5,CCNC(C(=O)c1c[nH]c2c(CC)cccc12)c1ccccc1 (centres undefined),"inconclusive [inhibitor, single point]"
6,O=C(CCNS(=O)(=O)c1cccc2nonc12)NC1CCCc2ccccc21 (centres undefined),"inconclusive [inhibitor, partial curve, poor fit]"
7,N=c1c2c(-c3ccccc3)c(-c3ccccc3)n(Cc3ccco3)c2ncn1CCCn1ccnc1,"inconclusive [inhibitor, partial curve]"
8,Cc1cccc(-c2noc(-c3ccc(Cl)cc3[N+](=O)[O-])n2)c1,"inconclusive [inhibitor, partial curve]"
9,O=C(Cc1ccccc1)Nc1ccc(SC(F)F)cc1,"inconclusive [inhibitor, single point]"
10,COc1ccc(-c2cc(-c3nnc(COC(=O)C4CC4C)o3)c3ccccc3n2)cc1OC (centres undefined),"inconclusive [inhibitor, full curve, poor fit]"
11,CCNC(=O)c1ccc(=O)n(Cc2ccc(Cl)cc2Cl)c1,"inconclusive [inhibitor, single point]"
12,COc1ccc2nc(C)c3cc(C)oc3c2c1,active: 8.91 µM
13,CC(C)C(=O)N1N=C(c2ccc(NS(C)(=O)=O)cc2)CC1c1cccs1 (centres undefined),"inconclusive [inhibitor, single point]"
14,O=C(Nc1nc2ccccc2s1)c1ccc(F)cc1,"inconclusive [inhibitor, single point]"
15,O=C(CN1CCN(c2ccccn2)CC1)Nc1nc2ccccc2s1,"inconclusive [inhibitor, single point]"
16,CCOc1ccc(N(C(C)C(=O)N/N=C(\C)c2cccc(NC(=O)c3ccccc3)c2)S(C)(=O)=O)cc1 (centres undefined),"inconclusive [inhibitor, partial curve, poor fit]"
17,Cc1sc2ncn(CC(=O)NCCCN3CC(C)CC(C)C3)c(=O)c2c1S(=O)(=O)N1CC(C)CC(C)C1 (centres undefined),"inconclusive [inhibitor, partial curve]"
18,Cc1cc(C2CCCCC2)n(O)c(=O)c1,"inconclusive [inhibitor, single point]"
19,CC(Sc1ccc(S(=O)(=O)N2CCOCC2)cn1)C(=O)Nc1ccc(Cl)cc1Cl (centres undefined),"inconclusive [inhibitor, partial curve]"
20,Cc1cccc(NC(=O)CNC(=O)CSc2nnc(C(F)(F)F)n2C)c1C,inactive
21,Cc1cc(C)cc(-n2c(SCC(=O)NCc3ccco3)nc3ccccc3c2=O)c1,"inconclusive [inhibitor, single point]"
22,COC(=O)c1ccc(C(=O)OC)c(NC(=O)COC(=O)CCOc2ccc(C)cc2)c1,inactive
23,Cc1ccccc1Cn1nnc(C(=O)Nc2ccc3c(c2)OCCO3)c1N,"inconclusive [inhibitor, partial curve]"

row,SMILES,Potency
1,CCn1cc(CCC(=O)NCc2ccccc2OC)c2ccccc21,active: 10 µM
2,COc1cccc(-c2nnc(SCN3C(=O)c4ccccc4C3=O)n2C)c1,inactive
3,Cc1c(C(=O)NN)nn(-c2ccc(F)cc2)c(=O)c1C#N,"inconclusive [inhibitor, partial curve]"
4,Cn1c(CCNC(=O)c2cccs2)nnc1SCC(=O)Nc1nc(-c2ccccc2)cs1,inactive
5,Cc1ccc(C(=O)NCCCc2ccccc2)c(Cl)c1,"inconclusive [inhibitor, single point]"
6,COc1ccc(CN2CCCN(S(=O)(=O)c3ccc(Br)cc3)CC2)cc1,"inconclusive [inhibitor, single point]"
7,O=C(Nc1ccc(Cl)cc1)N1CCC(c2nc(-c3ccc(F)cc3)no2)CC1,"inconclusive [inhibitor, full curve]"
8,CCCC(=O)Nc1ccccc1NC(=O)c1ccc2c(c1)OCO2,inactive
9,COc1ccc(-c2cn3c(C)c(C(=O)Nc4cccc(C)n4)sc3n2)cc1,"inconclusive [inhibitor, full curve]"
10,Cc1cc(/C=C2/NC(=O)NC2=O)c(C)n1C,inactive
11,O=C(Nc1ccc(N2CCN(C(=O)c3ccccc3)CC2)cc1)c1ccc([N+](=O)[O-])o1,"inconclusive [inhibitor, single point]"
12,O=C(NNC(=O)c1cc(-c2ccc(Cl)cc2Cl)nc2ccccc12)Nc1ccccc1,"inconclusive [inhibitor, partial curve]"
13,OCCNCC(O)Cn1c2ccccc2c2ccccc21 (centres undefined),inactive
14,COc1ccc(Cl)cc1C1=CC(=O)C[C@H](c2ccc(F)cc2)C1,"inconclusive [inhibitor, single point]"
15,COc1ccc(NC(=O)CN(c2ccc(OC)c(Cl)c2)S(=O)(=O)c2ccccc2)c(OC)c1,"inconclusive [inhibitor, partial curve]"
16,OC(CN1C2=NCCCN2c2ccccc21)c1ccc(Cl)cc1 (centres undefined),"inconclusive [inhibitor, single point]"
17,CCOC(=O)CCNC(=O)Nc1ccc2nc(C)n(Cc3ccc(Cl)cc3)c(=O)c2c1,inactive
18,O=C(c1ccc(Cl)c(S(=O)(=O)N2CCc3ccccc3C2)c1)N1CCN(c2ccccc2)CC1,"inconclusive [inhibitor, partial curve, poor fit]"
19,COc1ccc(-c2cc(C(=O)NNC(=S)NC(=O)c3c(-c4ccccc4)noc3C)[nH]n2)cc1,"inconclusive [inhibitor, partial curve]"
20,c1coc(CNc2nc(-c3ccncc3)cs2)c1,inactive
21,CC(=O)C[C@H](O)CC(=O)[C@H]1OC(=O)CCCCCCc2ccccc21,"inconclusive [inhibitor, full curve, poor fit]"
22,O=C(Nc1nc2n(n1)C(c1ccccc1)CC(c1ccc(Cl)cc1)N2)c1ccco1 (centres undefined),inactive
23,O=C([O-])c1ccc(-[n+]2c(-c3ccccc3)cc(-c3ccccc3)cc2-c2ccccc2)cc1,inactive

row,SMILES,Potency
1,Cc1ccc(C)c(OC(=O)c2cccnc2Cl)c1C,inactive
2,CCN(CC)C(=O)Cc1ccccc1,inactive
3,CCN1C(=O)/C(=C2\SC(N3CCCCC3)=NC2=O)c2ccccc21,"inconclusive [inhibitor, single point]"
4,CN(CC(=O)N1CCCCC1)S(=O)(=O)c1cccc2nsnc12,inactive
5,COc1ccc(Cc2nn3c(-c4ccccc4Br)nnc3s2)cc1,"inconclusive [inhibitor, single point]"
6,CCC(C(=O)NCc1ccc(F)cc1)n1nc(C)n2c(cc3occc32)c1=O (centres undefined),"inconclusive [inhibitor, single point]"
7,CCOc1ccc(OCCCCNC(C)(C)C)cc1,"inconclusive [inhibitor, single point]"
8,COc1ccc(N(C(=O)c2snc(C(N)=O)c2N)C(C(=O)NC2CCCC2)c2cc(OC)ccc2OC)cc1 (centres undefined),"inconclusive [inhibitor, partial curve, poor fit]"
9,COc1ccc(C(=O)Nc2cc(C)nn2-c2nc3ccccc3[nH]2)c(OC)c1,"inconclusive [inhibitor, partial curve]"
10,Cc1ccc(CN(C)C(=O)COc2ccc(S(=O)(=O)N3CCCC3)cc2[N+](=O)[O-])c(C)c1,inactive
11,CCCCNC(=O)c1nn2c(C(F)(F)F)cc(-c3ccc(OC)cc3)nc2c1Br,"inconclusive [inhibitor, full curve]"
12,COCCn1c(SCc2nc(N)nc(Nc3ccccc3C)n2)nc2ccccc2c1=O,"inconclusive [inhibitor, single point]"
13,COc1ccccc1CN(C)CC(=O)Nc1ccccc1-c1ccccc1,"inconclusive [inhibitor, partial curve]"
14,Cc1ccc(CN2CCSc3ccc(C(=O)NCc4cccnc4)cc32)cc1,active: 25.1 µM
15,N#Cc1c(-c2ccc3c(c2)OCO3)csc1N,active: 8.91 µM
16,O=C(Nc1ccc(F)cc1F)N1CCCN(CCOc2ccccc2)CC1,"inconclusive [inhibitor, single point]"
17,COc1ccccc1C1SCCN1S(=O)(=O)c1cccc(C(F)(F)F)c1 (centres undefined),"inconclusive [inhibitor, partial curve]"
18,COc1ccc(N2CCN(CCNC(=O)Nc3ccc([N+](=O)[O-])cc3OC)CC2)cc1,"inconclusive [inhibitor, partial curve]"
19,CCCCCC(=O)Nc1ccc(-c2csc(N)n2)cc1,"inconclusive [inhibitor, partial curve]"
20,CC(=O)Nc1ccc2c(c1)C(=O)c1ccccc1C2=O,active: 10 µM
21,O=c1c2ccccc2ncn1CCCSc1ccc(Cl)cc1,inactive
22,COc1ccc(CCNC(=O)c2ccc(S(=O)(=O)N3CCCCC3)cc2)cc1,"inconclusive [inhibitor, single point]"
23,COc1ccc(-n2nc3c(c2NC(=O)CCCl)CSC3)cc1,inactive

# Source: PubChem BioAssay AID651820 (National Center for Advancing Translational Sciences (NCATS), 2012)
